According to PMC3884107 (PLoS ONE, 2013):

How the values were obtained:
Details in all cases: both partners purified
[1] = molecular target: T1, MSP 689R (active two-chain macrophage stimulating protein; Q19-G711; C672A) (human, UniProt P26927 19-483; P26927 484-711, C672A); experiment: BLI; RON-Fc (10 µg/ml) loaded on anti-human IgG Fc biosensors, Octet RED384; MSP, MSP β or scMSP 75-4.7 nM, 400 s association, 400 s dissociation, 30°C; global 1:1 fit, KD = koff/kon
T1 construct: MSP alpha-chain of human macrophage stimulating protein: from Q19 of the pro-MSP construct to R483 (cleavage between R483 and V484); disulfide-linked to the beta-chain; Made as single-chain pro-MSP (Q19-G711; C672A; C-terminal 6-His) and cleaved by sHepsin; For the radioligand assay part of the protein was iodinated with 125I (Iodogen); also called HGFL; MST1; source: CHO cells, transiently …

[2] = molecular target: T2, MSP 689C (active two-chain macrophage stimulating protein; Q19-G711; C672A; 689C) (human, UniProt P26927 19-483; P26927 484-711, C672A | 689R to 689C); experiment: as above
T2 construct: MSP alpha-chain of human macrophage stimulating protein: from Q19 of the pro-MSP construct to R483 (cleavage between R483 and V484); disulfide-linked to the beta-chain; Made as single-chain pro-MSP (Q19-G711; C672A; C-terminal 6-His) and cleaved by sHepsin; For the radioligand assay part of the protein was iodinated with 125I (Iodogen); source: CHO cells, transiently transfected, secreted; …

[3] = molecular target: T1, MSP 689R (active two-chain macrophage …); experiment: SPR; RON-Fc captured (50-100 RU) on immobilised anti-human Fc surfaces, CM5 chip, Biacore 3000; MSP, MSP β or scMSP injected 500-3.9 nM in HBS-P (10 mM HEPES pH 7.5, 150 mM NaCl, 0.005% P20), 25°C, 30 µl/min; global 1:1 Langmuir fit, KD = koff/kon
[4] = molecular target: T2, MSP 689C (active two-chain macrophage …); experiment: as above

Kd [1]: 9.9 nM | koff [1]: 0.0025 s⁻¹ | kon [1]: 250000 M⁻¹ s⁻¹ | Kd [2]: 9.4 nM | koff [2]: 0.0042 s⁻¹ | kon [2]: 430000 M⁻¹ s⁻¹ | Kd [3]: 6.4 nM | koff [3]: 0.0033 s⁻¹ | kon [3]: 510000 M⁻¹ s⁻¹ | Kd [4]: 9.6 nM | koff [4]: 0.0002 s⁻¹ | kon [4]: 17000 M⁻¹ s⁻¹
B1: RON-Fc (human RON Sema, PSI and IPT1 domains, […], Fc fusion with human IgG1) (Fc fusion)
chain: not shown
notes: human RON (Recepteur d'Origine Nantais, MST1R), Sema, PSI and IPT1 domains, […]; also called RON-Fc fusion protein; source: CHO cells; purified (MabSelect Sure, SEC)
